# According to publication PMC12136788:
# This is one part of the list.
# T1: UNK ZnF1-6 (called full-length) (human, UniProt Q9C0B0 30-357)
# T1 sequence: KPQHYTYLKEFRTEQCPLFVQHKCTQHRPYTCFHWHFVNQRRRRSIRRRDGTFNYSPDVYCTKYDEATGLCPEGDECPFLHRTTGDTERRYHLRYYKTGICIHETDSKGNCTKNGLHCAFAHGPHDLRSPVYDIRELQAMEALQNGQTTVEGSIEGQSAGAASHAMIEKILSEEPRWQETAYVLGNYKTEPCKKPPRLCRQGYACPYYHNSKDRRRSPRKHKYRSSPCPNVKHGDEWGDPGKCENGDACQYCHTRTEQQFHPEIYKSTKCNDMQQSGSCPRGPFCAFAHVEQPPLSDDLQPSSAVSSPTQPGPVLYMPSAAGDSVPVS
# B1: chr16:58973:59127:-|CDS|ENSG00000007384|control|control|control (ssRNA)
# RNA: GGGAGUUCUACAGUCCGACGAUCCAUCUGCUUCCAGAUGACUGUCCUGCGGGACCUGGAGAAGCUGGCAGGCUGGCACCGCAUAGCCAUCAUCUACCUGCUGAGUGGUGUCACCGGCAACCUGGCCAGUGCCAUCUUCCUGCCCAACAGAGGAUUGAGCAUCA
# B2: chr1:33300114:33300153:+|3pUTR|ENSG00000160094|msi1_unk|total|mutant (ssRNA)
# RNA: GGGAGUUCUACAGUCCGACGAUCCCCUGCCCCCAGCCCCCACAGACACACCCCAAUCUGAAAGCCAUGCGUGUCGGUGUAUACCGGAACCAUGUACAGAGCCCAGAGAAGCCCCCUACAUCCCCCCGGGAAAAAAAAGAAAACCAACAGAGGAUUGAGCAUCA
# B3: chr9:35074926:35075082:-|three_prime_utr|ENSG00000221829|control|control|control (ssRNA)
# RNA: GGGAGUUCUACAGUCCGACGAUCUGUGAGCAGGGAUGUAAGUCAGAUGCGGCACUGCAGCAGCUUCGGGCAGCCGCCCUAAUUAGUCGUGGACUGGAAUGGGUAGCCAGCGGCCAGGAUACCAAAGCCUUACAGGACUUCCUCCAACAGAGGAUUGAGCAUCA
# B4: chr1:145912163:145912566:-|CDS|ENSG00000131779|control|control|control (ssRNA)
# RNA: GGGAGUUCUACAGUCCGACGAUCCCCACUUCUGCUAGACGUGGUCAGAAAUGCCUGUGAUCUCUUCAUUCCUCUGGACAAACUAGGCCUCUGGCGCUGUGGCCCUGGGAUUGUGGGGCUUUGUGGCCUCGUGUCCUCCAUCCUCAACAGAGGAUUGAGCAUCA
# B5: chr7:21908192:21908293:-|CDS|ENSG00000164649|msi1|FALSE|unique (ssRNA)
# RNA: GGGAGUUCUACAGUCCGACGAUCUUUUCUAGCGCACGCUUACAGAAUGAGAAAAAAACAAUUCUUGAAAGAAAGAAAGACUGUAGACAGGUGAUACAAAGGGAAGAUUCUACCUCUGAGUCUGAGGAUGACUCUCGGGAUGAGCAACAGAGGAUUGAGCAUCA
# B6: ENSG00000124766:be:win_1301|CDS|ENSG00000124766|bound_else_gene|NA|bound_elsewhere_windowed (ssRNA)
# RNA: GGGAGUUCUACAGUCCGACGAUCUUAACUUCGAGCCCGGCUCCGGCUCGCACUUCGAGUUCCCGGACUACUGCACGCCCGAGGUGAGCGAGAUGAUCUCGGGAGACUGGCUCGAGUCCAGCAUCUCCAACCUGGUUUUCACCUCAACAGAGGAUUGAGCAUCA
# B7: chr17:42842016:42842117:+|3pUTR|ENSG00000131467|msi1|FALSE|unique (ssRNA)
# RNA: GGGAGUUCUACAGUCCGACGAUCUUACUGUUUCUUUCCUCUGUGGGGCAUUGGAUCCUCCCACAGUUGCCCUGGUGAUGACUUAGGGCUUCCCAUCUGUGUACAUCCCACUUUGAAUCUUGAUCGUGACAAGAAAUACCUUAGCAACAGAGGAUUGAGCAUCA
# B8: chr10:22535117:22535218:-|3pUTR|ENSG00000150867|unk|total|mutant (ssRNA)
# RNA: GGGAGUUCUACAGUCCGACGAUCAAGGUACACAUACAUUAUUUGAGUAACUGUUUCCUUGGGGGCCAAUCUGUGUAUGCUUUCCGAAGUUUACAGAAUGCUUUUAUUUUUGUCUAUAACAAACAGUCUGUCAUUUAUUUCUGUCAACAGAGGAUUGAGCAUCA
# B9: chr1:93180074:93180188:-|CDS|ENSG00000117500|unk|FALSE|bound_elsewhere (ssRNA)
# RNA: GGGAGUUCUACAGUCCGACGAUCCUGGCCGCUCUGCCUCCGGUGCUGCUGCCUGGGGCGGCCGGCUUCACACCUUCCCUCGAUAGCGACUUCACCUUUACCCUUCCCGCCGGCCAGAAGGAGUGCUUCUACCAGCCCAUGCCCCAACAGAGGAUUGAGCAUCA
# B10: chr3:149084675:149084859:-|CDS|ENSG00000071794|unk|FALSE|unique (ssRNA)
# RNA: GGGAGUUCUACAGUCCGACGAUCCCAACUUUCUUUCCACGUUUUGAAUUCCAAGAUGUUAUCCCUCCAGAUGACUUUCUAACUAGUGAUGAAGAAGUAGAUUCCGUUUUAUUUGGAAGUUUGAGAGGUCAUGUGGUUGGACUACAACAGAGGAUUGAGCAUCA
# B11: ENSG00000092929:stop:overlap|stop_codon|ENSG00000092929|stop_codon|NA|stop_codon (ssRNA)
# RNA: GGGAGUUCUACAGUCCGACGAUCUGAGGCUGCGGCGGCACCGGGCCAAGCAGGCCUCCCAGCAUGCCUUGCGGCCGGCACCGUAGCCGUAGAGGUUUGCGGUGGGGCUGGGUCCCCGGUGGGGACUUGCAAGGGCUUUCCUGUCAACAGAGGAUUGAGCAUCA
# B12: chr3:48467913:48467962:-|3pUTR|ENSG00000164054|msi1_unk|FALSE|overlapping (ssRNA)
# RNA: GGGAGUUCUACAGUCCGACGAUCCCCAGACAUGAAUACCUCGUGUUCCUCCUCCCUCUAUUACUGUUUCACCAGAGCUGUCUUAGCUCAAAUCUGUUGUGUUUCUGAGUCUAGGGUCUGUACACUUGUUUAUAAUAAAUGCAACAACAGAGGAUUGAGCAUCA
# B13: chr12:122865329:122867115:-|three_prime_utr|ENSG00000139722|control|control|control (ssRNA)
# RNA: GGGAGUUCUACAGUCCGACGAUCUGGAGGUCCGCUCUGUGCCAAGGGCUCUGGGGCCCUGGGCCAGCGUGUCUGUCUGAUUUUAGAACUGUAGGUCAGUGGUGAGUAGUAGGAGCCCAGGCUUUGGGCAUCAAGGCAGUUGUGCAACAGAGGAUUGAGCAUCA
# B14: ENSG00000166086:stop:overlap|stop_codon|ENSG00000166086|stop_codon|NA|stop_codon (ssRNA)
# RNA: GGGAGUUCUACAGUCCGACGAUCUCCUGCUGCUGCUUUUCAGGGAGUCAAGUCUAGUCUGCUUUCCAAGGCUGCAUUCUAAGUAGUGAAGCCUCAACUUCAUAUUUACCUAAAGCAGGACACCACACUCUUCCCCUGGCAGCCCAACAGAGGAUUGAGCAUCA
# B15: chr2:128192036:128192329:+|3pUTR|ENSG00000136731|msi1|FALSE|unique (ssRNA)
# RNA: GGGAGUUCUACAGUCCGACGAUCAUGUCCUGGUGUCACUCAUUGCCUCUUAUCUGUCGCCAUUCUAAUAUAAGUCAGCUUAAUAGUUGACUCUGAAUAAUGCAAAACCCAGCUUGCUUCCAGAAUGGCCUAGGACCCUCCUCCCAACAGAGGAUUGAGCAUCA
# B16: chr4:186619803:186619904:-|CDS|ENSG00000083857|msi1|FALSE|unique (ssRNA)
# RNA: GGGAGUUCUACAGUCCGACGAUCAGACGGAGACCCUUUCAGCCAGUUCACUAUUAACUUCAAUACUGGAGUUAUCAAUGUCAUAGCUCCUCUGGACUUUGAGGCCCACCCGGCAUAUAAGCUGAGCAUACGCGCAACUGACUCCAACAGAGGAUUGAGCAUCA
# B17: ENSG00000092201:stop:overlap|stop_codon|ENSG00000092201|stop_codon|NA|stop_codon (ssRNA)
# RNA: GGGAGUUCUACAGUCCGACGAUCUUCCCCGCGUGCCAGCCUUGGUCAUGCAUAGCAGCACCUCUCGCAGUCUCUUCCCGCCCUAGAAGAGGCAACAUCCUUCCCUCCUACUCCGUGGUCACGUCUUGCUGCCCUCCCCUGCCGCAACAGAGGAUUGAGCAUCA
# B18: ENSG00000077092:stop:overlap|stop_codon|ENSG00000077092|stop_codon|NA|stop_codon (ssRNA)
# RNA: GGGAGUUCUACAGUCCGACGAUCUGCUGAAGGCCGCCUGCCUGGACAUCCUGACCGCCAGGACCUUGAGGAACCGACAAAAGUAGAUAAGCUACAAGAACCAUUGCUGGAAGCACUAAAAAUUUAUAUCAGAAAAAGACGACCCAACAGAGGAUUGAGCAUCA
# B19: chr12:68839811:68839877:+|CDS_3pUTR|ENSG00000135679|msi1_unk|FALSE|overlapping (ssRNA)
# RNA: GGGAGUUCUACAGUCCGACGAUCAUAAGCCCUGCCCAGUAUGUAGACAACCAAUUCAAAUGAUUGUGCUAACUUAUUUCCCCUAGUUGACCUGUCUAUAAGAGAAUUAUAUAUUUCUAACUAUAUAACCCUAGGAAUUUAGACCAACAGAGGAUUGAGCAUCA
# B20: chr10:122937732:122937852:-|CDS|ENSG00000119965|unk|FALSE|unique (ssRNA)
# RNA: GGGAGUUCUACAGUCCGACGAUCGUAAGUGACAACUCAAAUAUACCCAACUCCGAGUUGCUGCCUUUUCUCCAGAAUUUAUGUAGUCAAGUUAAUCAUCUCCAUGUGGGAAAUAAGACCGAGUGUCAGGAAAACAUCACCAAGCAACAGAGGAUUGAGCAUCA
# B21: ENSG00000198589:be:win_2151|CDS|ENSG00000198589|bound_else_gene|NA|bound_elsewhere_windowed (ssRNA)
# RNA: GGGAGUUCUACAGUCCGACGAUCAAGGAAUGGGUUACGUGUUAUCUACAAACUUCUGGCAUCGAAAAGUGAAGGAAUCAGGGUACAAGCUCUUAAGGCAAUGGGUUAUUUUUUAAAACAUCUGGCCCCAAAGAGGAAAGCAGACAACAGAGGAUUGAGCAUCA
# B22: chr3:69085097:69085224:+|CDS|ENSG00000144746|unk|total|mutant (ssRNA)
# RNA: GGGAGUUCUACAGUCCGACGAUCGGGUUCCGAUCGCUUUGCCCGGCCGGACUUCAGGGACAUUUCCAAAUGGAACAACCGCGCCGUGAGCAACCUGCUCUAUUACCAGACCAACUACCUGGUGGUGGCUGCCAUGAUGAUUUCCAACAGAGGAUUGAGCAUCA
# Molecular target: T1, UNK ZnF1-6 (called full-length)
# Assay: nsRBNS (natural sequence RNA bind-n-seq); RBNS binding buffer (assumed for nsRBNS): 25 mM Tris pH 7.5, 150 mM KCl, 3 mM MgCl2, 0.01% Triton X-100, 500 ug/ml BSA, 20 U/ml SUPERase-In, 4 C; UNK is unkempt and MSI1 is Musashi-1; names of the RNAs are library labels; protein concentration not given here; high values mean tight binding
row,Binder,binding signal
1,B1,0.481 enrichment R
2,B2,0.733 enrichment R
3,B3,0.844 enrichment R
4,B4,0.713 enrichment R
5,B5,0.671 enrichment R
6,B6,0.474 enrichment R
7,B7,0.557 enrichment R
8,B8,0.482 enrichment R
9,B9,1.1 enrichment R
10,B10,1 enrichment R
11,B11,0.698 enrichment R
12,B12,0.571 enrichment R
13,B13,1.28 enrichment R
14,B14,0.638 enrichment R
15,B15,0.601 enrichment R
16,B16,0.531 enrichment R
17,B17,0.859 enrichment R
18,B18,0.881 enrichment R
19,B19,1.75 enrichment R
20,B20,0.553 enrichment R
21,B21,0.693 enrichment R
22,B22,0.471 enrichment R
